Reference: the supplement of paper PMC11417369
Some of the results follow.

system: PfHDP1 homeodomain (GST-tagged); assay: gcPBM binding intensity (ln(normalized median fluorescence intensity)); higher = stronger DNA binding
Procedure, shortened: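 GST-tagged P. falciparum DNA-binding domains, expressed in E. coli (about 25 μg on average), were applied for 1 h to an Agilent 4 × 180k array of primer-extended double-stranded 36-bp intergenic genomic probes plus negative controls. The binding buffer was 1× PBS with 1% milk, 0.2 mg/ml BSA, 0.5% salmon testes DNA and 0.03% Triton X-100. Bound protein was detected with Alexa488 anti-GST antibody and scanned at 488 nm. Binding intensity is the highest Masliner-normalised natural-log median intensity across replicate spots of either probe orientation.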

| Sequence | gcPBM binding intensity (ln) |
| --- | --- |
| ATATATCAATATAAAAGTACAAACAAAAAATAATCA [XGTACX_site7559] | 6.82 |
| GATATATACTCCATCACACACCAAAAAGAAAAAAGA [CACACA_site7242] | 6.67 |
| AATTAATGGGTACATACACACATATATACCTACATA [CACACA_site4572] | 6.37 |
| TCCATTTATAAATTAGCATGCAATCTATGTCTGATA [TGCATGCA_site1045] | 6.72 |
| ATCAAAAGAAAACACACACACATACAGATATATATA [CACACA_site5974] | 6.88 |
| CCATCTAAACACAACTCGAGTTGGATGTGTGAACTT [XGTACX_negctrl_site83] | 6.38 |
| ATATATATATATATATGTACATATTTCTCCATTTTT [XGTACX_site2869] | 9.34 |
| AAACCGTGGGAGCACACACACACACCGACACATATA [CACACA_site4338] | 6.97 |
| GCATTGTCCATGCGCACACACTACTAGAATAATATG [CACACA_site5932] | 7.66 |
| TGCAATTGTAAAGGCGCACACATATATATATATATA [CACACA_site4894] | 9.24 |
| GTTTTTTATAATTGTAGTACAAGAAGATATTTTTAT [XGTACX_site5443] | 6.43 |
| CATATTTTTATAAATTGTACGTATATTATATATATA [XGTACX_site1816] | 7.14 |
| GAGAAGACATTACACAGTACCCAGTAACTCTACGGA [XGTACX_site2000] | 6.11 |
| AAATTGGGGCTTGTTACACACTTAGTGCGAGTTCTA [CACACA_site582] | 6.59 |
| GATTATTATGTCCATGCATGTTAATATATATTAATT [TGCATGCA_site837] | 7.13 |
| GAAATTTTATTTCGGCGGACAAATGTATACTTTCTT [XGTACX_site4238] | 6.13 |
| TTTTAAAAAACAAACACACACGTAGAAAAAAAAAAA [CACACA_site4608] | 6.51 |
| AAAATATATATAAATGCATGCATAATGAAATATATA [TGCATGCA_site39] | 6.83 |
| CTGTATAAAACCAATGCATGTAAATATATTAATATA [TGCATGCA_site511] | 7.14 |

| Sequence | gcPBM binding intensity (ln) |
| --- | --- |
| TGAAAAGGAAATTGTTGTACATATGTTTCTTCCTAA [XGTACX_site3932] | 6.25 |
| AATAGCAATTTGGGGTGTACACACACCTTATTTAAA [XGTACX_site2234] | 6.36 |
| CCATTATATCTAAGTACACACATTAATTTTTTTTTT [CACACA_site6115] | 6.58 |
| TATATATAAATATTCAGTACATAGTGCTATTAAGTG [XGTACX_site1979] | 6.7 |
| AGAAATTAATCGAGGTGTACGTACATCCAAATATAT [XGTACX_site7650] | 6.86 |
| ATATATTTAACAAGATGTACAATTTTATAAAAAATA [XGTACX_site2351] | 6.41 |
| TTTTTATAAAAAAATAGTACTCGTCTAATCTTATGT [XGTACX_site8532] | 6.41 |
| ATACATCAAGGACACACACACACACGCACACGCACA [CACACA_site6310] | 7.54 |
| TTATGATGGTCTTTATAAGGGCACATTAAATTCGGC [TGCATGCA_negctrl_site166] | 6.46 |
| AAACTATTCACTATAATACATTAGAAGTGAATAAAA [TGCATGCA_negctrl_site498] | 6.21 |
| ATCATTTTTAAAGGAACACACAAAAAAAGTTATAAT [CACACA_site6761] | 6.86 |
| TATATATATATATATACACACAAAAAAATAAATTCT [CACACA_site98] | 9.33 |
| ATTTATTTTAATAATTGTACATGTTATTTTATATAT [XGTACX_site2667] | 6.3 |
| TACTTTTCATCTTCTTAACACACAAAAAAAAAAAAA [CACACA_site9290] | 6.53 |
| ACAAGGAATATAAAAAGTACATAAAATACATAAAAA [XGTACX_site1217] | 6.56 |
| CCATTTACATTGTGAAGTACTAAAAAAAAATGTAGA [XGTACX_site7882] | 6.87 |
| ATATAAATATAAATATATATGTATAAATATAAATAT [CACACA_negctrl_site247] | 6.15 |
| ATAATTTGATGGTTAACACACATATATATTATATAT [CACACA_site2449] | 6.76 |
| TATGGATGTATTCATACATGCACACGTACATATTTA [TGCATGCA_site991] | 7.74 |

| Sequence | gcPBM binding intensity (ln) |
| --- | --- |
| ATATATTATTATAACTGTACTTTTTTTGTGGTTAAT [XGTACX_site8266] | 6.64 |
| TATGCGTATATATAAATACACACCAAATGTTAATAT [CACACA_site1713] | 6.48 |
| CCACGTATAATATGTACACACACATAAATACAAAAA [CACACA_site4660] | 6.67 |
| AATTAAATTATAAGCACACACATATATATATATATA [CACACA_site3351] | 9.33 |
| TAAAAAATGTTATATACACACAGTATAAAAAAAAAT [CACACA_site7808] | 6.65 |
| TATAAATATAAATACACACACATATATATTATATAT [CACACA_site4496] | 6.63 |
| ACCTATTTCAAACACACACACACACTAGCAAACATA [CACACA_site4695] | 7.26 |
| ATATATATATATATGTGTACATAATAACTTTGCTTA [XGTACX_site1255] | 9.17 |
| TATATATATATATGTTGTACATATTTAAATGTTTAT [XGTACX_site5437] | 9.06 |
| CTTATTTCCTTTTGTAGTACCTTATAATATATATAA [XGTACX_site8873] | 7.12 |
| GGGAAGTAGTAGTAATGTACTTATTTATTATGTGAC [XGTACX_site3985] | 6.63 |
| TTATATATTTTTTGCACACCAAAAAAGAGAATATTC [CACACA_site2730] | 10 |
| TTCTATTTGTAAAATTGTACAAAATAAATAACAAAA [XGTACX_site1007] | 6.59 |
| TAATAATAGTACTCACATCAAAGTATTATTAAAAAT [TGCATGCA_negctrl_site496] | 6.36 |
| GCATTTCTACTAAAAATACACACGATGATACAACGA [CACACA_site1756] | 6.63 |
| AATAAATCTTTTTGTTGTACTAAAAATATTATTAGC [XGTACX_site3335] | 5.92 |
| AAATTGTGTTCATCAGCACACACAACATCATGTAAT [CACACA_site8556] | 6.49 |
| TTAATATATTATATTTGTACATATATATATATACAA [XGTACX_site4798] | 6.46 |
